This is an account of results in the supplement of paper PMC12632987.

B1: GBRAP_166_4919 (protein)
chain: SMEERVEEAEERLRRVIEEERADPRMTPEQITVALADETAEILEEEKDRETRLAIVERALRLAKEAGLDPRRLAELTAGLYGFSDEEEEEIEKIVEEILA
B2: GBRAP_11_2724 (protein)
chain: KKEKLLKLAKKAEELAKKLEKLIKEGPTEEELKELLKEAEELAKEAKEAGVDESIVETLKEAAELIKKAIKDPENKIEYLNEALAALKVAAGDLLLEAEE
B3: GBRAP_160_4293 (protein)
chain: SEELEEHKKLVDETFKETLELMKGQTAEERAVIVDVELGALILELSEDPSVSDEALDEVDAIRDELVEYILANPNLTDEELEALLEEARKRILEILEKDA
B4: GBRAP_35_5611 (protein)
chain: DTDDLIADMLVATIEDLTLAVPDLDVDTLVAAVDGLVKSVREVAEELKDNLEALERLLEAMERLLEAMKAHHGDDPRAQEAIAKVEETIKYLKELIKKAK
B5: GBRAP_52_5919 (protein)
chain: SSEEAKKLAEEILEAALAGDKEKLEKLIKKLVEEKSLEEIKEVIKELARITAELGPEHYDLFAEIMDLLEDAAEEAGRDVEEVQYAIAEAAGLLYEAEQA
B6: GBRAP_9_7117 (protein)
chain: REEFIEKAAEVVKEAIEDIALVVPSVSEELKEKFKKRVEELKEEALKDKSLTKEEIAEKFKELLKEIKEEVKKIVNEEEQKMVDAIIYTAEEEIDELVEE
B7: GBRAP_14_3808 (protein)
chain: KEELKKAIREILEDLRRELVEDLGLDPERVTALVDEAIKRIEEAIETLENPEEKIEEIMEELRERIEALAAELGEDVAAGARALVDDAEYEIDEAIEKYS
B8: GBRAP_125_3143 (protein)
chain: KREELIALAEAVARAFGYSEEEIAELRRLAEASDPAQTIVAIFLAEGFEELAELAEKVLPKLTAEEVRELRDLAVEMLDAPLEEFAAALLAKLRELEAKL
B9: GBRAP_172_4999 (protein)
chain: GTTLLKLNLLGLSKEEAVETAVKAVKETIEKTGNNLVVAVIADDEETVEAVEKAIKKVAKEKGVKVEVVGEAYRSEEDERRVLAAAEAEKINLEYEEEEK
B10: GBRAP_184_5180 (protein)
chain: KILEKTLKFENVEELEEKLDEIAEEVKGTKAELYIYVEAEEVTVEMAETLMDKVKEIKEAGYASSITVHVDGDVSEEVADVLVEKAKEAGVKVALELEEE
B11: GBRAP_11_2738 (protein)
chain: KKEKLKKIAELAEKAAELVEKLIKEGVDNEKLIEETRKALEELKKAVKEYGDKSLQKLAELAIEDFNKGLEDPENAEQYFKEARATLRVLEGQVLLDIEE
B12: GBRAP_80_6788 (protein)
chain: AKERLEKAIKELEKEDEELAKKLKRIVEIAKEMGVSEETLAELAEAVLELAKEDLELAKEMLEELEKELEELKEEGDSENAEATLRVYAGQMLLEVEELE
B13: GBRAP_128_3310 (protein)
chain: MNEEILKKAKELAEKIVKASVEEAKKLTKEVIELMGKSSKEEREKITEILEEALKKLSAEKLEAVADTFRENRPKLDPYTANLAADLEVEALNLAEEKEE
B14: GBRAP_184_5322 (protein)
chain: EVVEVEITVSTEEEARKKLEEVKEEIKKSGKKYLVTIFVENPTEELLKTIADKIKEWKEEGIDAQVIVVTLDPVDEELADFAVKKFDEAGAKIVLALEDE
B15: GBRAP_52_6193 (protein)
chain: MREELRRKVEEILELVRAGRLEEARRLARELVEELNDEELELLAEVMAEVAARAPLEDEDAVFRTAELLAEAIEEAGKDEALAELLLARTAAALYAKHLA
B16: GBRAP_43_5741 (protein)
chain: SKELVEGALDFTKLLAEDPSIDEATKVRAFKAAVDLLADEKVQATDALVAAAKALAESLSEAAVQELIAHLDEVAAKNPAVKATFDAARAALRAALAARR
B17: GBRAP_52_6011 (protein)
chain: MEEEMRERLREALELVRAGREEEARKLVRELVKELNEEEIELLIELLAEMAREAAPEDFDAVWRLAEIVAEEMEEEGKDEVLADLLLARVAAALYEAEQR
B18: GBRAP_11_2818 (protein)
chain: MSEIVKELIKTLKELAEKAKKYLEEDVGNEELLKEIEKLAEKALELAKKLNDPAVIRDAQAILDTVKEAKADPANRAQYIANAKAGAETLLANIEEEAEE
B19: GBRAP_52_5921 (protein)
chain: SDEEARALAEAILEAALAGREDELRALIKRLVEEKSLEEIKRVIEELARLTAELGPEHYDLFADIMDLLLDAAEEAGRDVEEVDYAIAEAAGLLYDAEQA
B20: GBRAP_160_4581 (protein)
chain: SEKLERAKKLIDEARDFVKSQVDEVTLEEFKNIFETEFGAVILELLDEGLITEELADKLMEVVDAAVAYLDANPDLTPEERKALVDKATEEMKKILEEDY
B21: GBRAP_160_4779 (protein)
chain: SEKVKKLIESIEEAKKEILESIDTESPEETITVARGEMGLILAEVYELEIDNDELEDAVKEIGDELIEELKKNANASKEEKKKIIEEYTKKLIEKIKELS
B22: GBRAP_160_4763 (protein)
chain: SEELKKLKEEIDEIFDEYIELLKEVPKEEAVTIVEGAMGDVLMEVFSSEAASDELEDKIGEIADEAIARAKANKDAPVEEHIKILEDARDKILALLDEEI
B23: GBRAP_159_3963 (protein)
chain: MEERLAALREELRALGATEEQIAAALETVELSEEGEDPWSIAAHMVHLYTVLKATTEQLLLVLSYLPPEAAKESAEVLADLAERDGDAAAAAAFRAFAAA
B24: GBRAP_43_5781 (protein)
chain: SKELVDGALDFALLALEEPSIPEETKVKAIEAAFELAADEGYLDKEKLLAVIKAAGESLSAESLKKLKKKLEEIAKKYPEHKEVLEEAAELVEKAIKEKE
B25: GBRAP_184_5195 (protein)
chain: KVLEEEIKAENLEELKEKMKKLKEKAKKEKADLLVIVNLPEVTKEMIKALMEAMKEIKEEGYSPNILVEIVGKMTEENIDLAIKLADEAGVTLVLALDEE
B26: GBRAP_128_3532 (protein)
chain: STEEVIEEARKVVEEIKNSNVEEAYEITVEWLERLKTWSLEEVEAAVEVLIENLPLLSAEKLEAVADAIRENIGKLSPEKQRLVAGLEVEALNLAVEQEE
B27: GBRAP_52_6098 (protein)
chain: SEEELEKYAKELVKAAVAGDVEKATKLLLELVKSKSDEEVLKTLELAAKLMSELPKEELEKATDVMIEALDRVADETGKEELMDIAQARIAAIAYEALQK
B28: GBRAP_160_4741 (protein)
chain: SEELKKLKKEIEEIFKEGIELLKESEKSEALTIVRGIMGDVIMLALSSEAVSDELEEKIAEIADEAIEEVEKNKDADVEYAIEIVEKAKEEILKLIEEEI
B29: GBRAP_39_5689 (protein)
chain: EKEEENENVVSYLEGVAAKYLYETGISFEEALKEAKEVLKAYAEKHPELKPLVEKLIELAEEKGEEAKLVLIGVAVLIKEGTPDEEIKEIIEKAIEYFEE

The full ranking holds about 4,500 sequences; the median of “median log2 fold change of GCK-ALFA target abundance (FLAG IP / Myc IP barcode read proportion)” is about 0.078, and the lowest 2% start at about -0.6. Some of the results follow.

Sequence of GABARAP, O95166 (O95166 whole entry, the tested form may be a part): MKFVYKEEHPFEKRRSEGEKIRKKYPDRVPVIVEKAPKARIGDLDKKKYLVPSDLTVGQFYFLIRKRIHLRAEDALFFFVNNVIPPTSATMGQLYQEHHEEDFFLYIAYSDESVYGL

The experiment has as its target GABARAP, O95166. In words: median log2 fold change of GCK-ALFA target abundance (FLAG IP / Myc IP barcode read proportion) (log2 ratio); each designed protein is fused to an ALFA-tag nanobody in HEK293 cells to bring the named protein to FLAG-tagged glucokinase (GCK); Myc marks an untargeted standard; higher = target protein stabilised (more abundant). The conditions noted are these: target protein: 3xFLAG-MCP-GCK-ALFA reporter; HEK293 landing pad (RPLP). The method, boiled down: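 HEK293 landing-pad cells received a recombined binder library fused to the ALFA nanobody and were induced with 2 μg mL^−1 doxycycline, then transfected with a plasmid encoding a FLAG-tagged target and a Myc-tagged standard. Lysates were collected after 48 h for anti-FLAG and anti-Myc immunoprecipitation, and the circular RNA barcodes were reverse transcribed, amplified and sequenced. Target abundance for each binder is the median log2 ratio of FLAG to Myc barcode read proportions. Barcodes had to reach a proportion of at least 10^−7 in both replicates, each binder needed at least 3 barcodes per replicate, a pseudocount of 10^−6 was applied, and the two replicates were pooled.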
In the case of B1, the “median log2 fold change” value was 0.291.

Take B2: the “median log2 fold change” value is 0.0653.

On to B3, for which the “median log2 fold change” value is -0.53.

Consider B4, for which the “median log2 fold change” value is 0.133.

In the case of B5, the “median log2 fold change” value turned out to be 0.0167.

For B6, the “median log2 fold change” value came to 0.282.

With B7, the “median log2 fold change” value was -0.0417.

Consider B8, for which the “median log2 fold change” value is -0.133.

For B9, the “median log2 fold change” value was 0.15.

On to B10, for which the “median log2 fold change” value is -0.0144.

In the case of B11, the “median log2 fold change” value was found to be 0.144.

As for B12, the “median log2 fold change” value was -0.124.

For the molecule B13, the “median log2 fold change” value was 0.201.

Take B14: the “median log2 fold change” value was -0.413.

For B15, the “median log2 fold change” value amounted to 0.0239.

B16: the “median log2 fold change” value came out at 0.186.

Take B17: the “median log2 fold change” value was -0.174.

Turning to B18, the “median log2 fold change” value came to 0.0577.

Consider B19, for which the “median log2 fold change” value is -0.394.

With B20, the “median log2 fold change” value stood at 0.0559.

In the case of B21, the “median log2 fold change” value was -0.00444.

With B22, the “median log2 fold change” value was -0.0101.

With B23, the “median log2 fold change” value is 0.185.

Consider B24, for which the “median log2 fold change” value came to 0.286.

Consider B25, for which the “median log2 fold change” value was -0.207.

Turning to B26, the “median log2 fold change” value is 0.128.

As to B27, the “median log2 fold change” value came out at 0.196.

Regarding B28, the “median log2 fold change” value turned out to be 0.138.

In the case of B29, the “median log2 fold change” value is 0.178.
